Data reported in the supplement of paper PMC12217912.
The other results are listed elsewhere or left out. Sequences were assembled here from the parent chain. Values near 0.05 are background.

B1: TEV protease; numbered along this chain (parent)
chain: MGESLFKGPRDYNPISSSICHLTNESDGHTTSLYGIGFGPFIITNKHLFRRNNGTLVVQSLHGVFKVKDTTTLQQHLVDGRDMIIIRMPKDFPPFPQKLKFREPQREERICLVTTNFQTKSMSSMVSDTSCTFPSGDGIFWKHWIQTKDGQCGSPLVSTRDGFIVGIHSASNFTNTNNYFTSVPKNFMELLTNQEAQQWVSGWRLNADSVLWGGHKVFMVKPEEPFQPVKEATQL

Variants of: B1
Assay: raw area under fraction-flipped curve 0-4 h after induction (AUC4h, not background-subtracted), DNA-recorder readout of cleavage of the substrate (dimensionless); higher = more cleavage of the substrate by the protease variant
Conditions: temperature: 34 °C; time window: 0-4 h after rhamnose induction
Method: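 In vivo DNA recorder in E. coli TOP10(DE3) ΔrhaA at 34 °C. Each TEVp single-site mutant (parent TEVp 0) is paired with a single-site variant of the 7-mer TEVs (canonical ENLYFQ|S). The substrate sits between flexible linkers in a Bxb1-sfGFP-TEVs-SsrA fusion, so cleavage stabilises Bxb1 and speeds flipping of a recombination array, read by NGS. The value is the raw area under the fraction-flipped curve over 0-4 h after rhamnose induction (AUC4h), with ≥20 reads per time point. It is not background-subtracted; inactive controls average about 0.047.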
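Also: Bxb1 expression induced with 0.2% (w/v) L-rhamnose at OD600 near 0.5, cultures sampled hourly, flipped fraction per protease–substrate barcode pair counted by paired-end Illumina sequencing.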

Variant	area with substrate ENLYFQA	area with substrate ENLYFQC	area with substrate ENLYFQE	area with substrate ENLYFQG	area with substrate ENLYFQH	area with substrate ENLYFQL	area with substrate ENLYFQN	area with substrate ENLYFQR	area with substrate ENLYFQS	area with substrate ENLYFQV	area with substrate ENLYFQD	area with substrate ENLYFQF	area with substrate ENLYFQI	area with substrate ENLYFQM	area with substrate ENLYFQP	area with substrate ENLYFQQ	area with substrate ENLYFQT	area with substrate ENLYFQW	area with substrate ENLYFQY	area with substrate ENLYFQK
Q59A	0.0799	0.116	0.0691	0.147	0.0747	0.0701	0.0866	0.0623	0.108	0.0654										
P134I	0.085			0.0954	0.0657	0.0562	0.0691	0.0489	0.0838	0.0644	0.0591	0.0592	0.0238	0.0749	0.0615	0.0625	0.0349	0.0856	0.0607	
D91L	0.14		0.0632			0.0695		0.0642	0.0968							0.108	0.0775			
T72Y	0.0771	0.0966		0.141	0.0807		0.0676	0.0568	0.0898		0.108		0.0483						0.0842	0.0735
D161E	0.0801	0.0832		0.0852	0.0593	0.0563	0.0645	0.0599	0.079		0.0538		0.0532	0.0748	0.0611		0.0576	0.0526	0.0679	0.058
P222N	0.1	0.112	0.058	0.1	0.107		0.0771		0.101	0.0803	0.0695		0.0619	0.0643		0.0713	0.0685		0.0765	0.0667
K221M	0.0834			0.0944	0.089	0.0595	0.0812		0.0957	0.0542			0.0656	0.0642	0.0634		0.0682		0.0884	0.0714
P14Q	0.03	0.142			0.092			0.0756	0.11	0.0626	0.0912	0.0812	0.0468	0.0878		0.0635	0.0675		0.0856	0.0438
V78M	0.105	0.11	0.0576	0.0937	0.0752	0.051	0.0891	0.0565	0.0988		0.0764	0.0536	0.0568	0.0787	0.0583	0.0839	0.0601	0.0521	0.0854	0.0412
S127F	0.1	0.105	0.0696	0.0999	0.0882	0.0677	0.0853	0.0551	0.114			0.0943	0.0297	0.101	0.0277	0.0577	0.0667	0.0643	0.096	0.0608
T115D	0.0281					0.0619	0.0798	0.0814	0.0967			0.0941					0.0632			
C20Y	0.0562	0.0538	0.0549			0.0436		0.056	0.0608	0.0428			0.069	0.0537			0.0441	0.0565		0.0574
F41K	0.0679	0.0644		0.0936	0.044	0.0633		0.0388	0.0624					0.0806	0.0575		0.0504		0.0044	0.0523
T233C	0.097	0.0838		0.0881	0.067	0.0667		0.0577	0.0932			0.069		0.0746			0.0721		0.0998	
T129S	0.101	0.0947		0.11	0.0866	0.0677	0.0732	0.0598	0.112			0.0844		0.0717		0.0701	0.0634	0.0646		0.0709
T174H	0.0909	0.0789				0.0586	0.0764		0.083				0.0586	0.04			0.0693	0.0468		0.0622
L235S	0.111			0.102		0.05		0.0635	0.107	0.0698			0.0517	0.106	0.0592		0.051	0.0841		
Y34E	0.08		0.0549	0.0651	0.0642	0.0597		0.0501	0.0773	0.0736	0.0748	0.0741		0.0611				0.0725	0.0219	
L22F	0.0517	0.085			0.0616	0.0573	0.0647	0.0456	0.0679				0.0543	0.0577	0.0498	0.0565	0.0528	0.0612	0.0464	0.0445
E189H	0.0324	0.128	0.0725			0.0624		0.0311	0.103		0.0596		0.0576	0.0584	0.0455		0.0781	0.0645		0.0759
G202E	0.07	0.0873		0.0556		0.0475	0.0549	0.0609	0.0673	0.0519	0.0282		0.0554	0.0687				0.0562	0.0662	0.0579
S60A	0.0655	0.119		0.0939	0.0758	0.0612	0.0787	0.0635	0.0952	0.05	0.062		0.052	0.0776	0.0683	0.0879	0.0692	0.0644	0.0601	0.0667
P228D	0.103			0.0878			0.0817		0.112				0.067	0.0619		0.0906	0.0766			0.081
S4F	0.138	0.13			0.101	0.0679	0.105	0.0641	0.143		0.0838		0.0659	0.134			0.0701	0.0943	0.0936	
N186C	0.103	0.107		0.0766	0.0692	0.0619	0.0903		0.0985				0.0585	0.0869						0.0499
V157M	0.0912			0.0652	0.0807	0.0539	0.0772	0.0452	0.091	0.0698			0.0588	0.0803			0.0857	0.0574		0.0822
I145W	0.0632	0.0666		0.0467	0.045	0.0539	0.0537	0.0588	0.0569		0.0468	0.031			0.0542			0.0486		0.0537
